Data published in publication PMC4336329 (PLoS ONE, 2015).
The whole screen tested about 310,000 compounds, of which about 2,200 (0.71%) showed an effect of 50% or more. The effect is printed as a negative number. The list shows a part of the results.

What follows are molecules tested against human ether-à-go-go-related gene (hERG) potassium channel (human, UniProt Q12809) (assay: primary screen, population patch clamp on CHO cells stably expressing hERG).
Sequence of human ether-à-go-go-related gene (hERG) potassium channel (Q12809 whole entry, looked up): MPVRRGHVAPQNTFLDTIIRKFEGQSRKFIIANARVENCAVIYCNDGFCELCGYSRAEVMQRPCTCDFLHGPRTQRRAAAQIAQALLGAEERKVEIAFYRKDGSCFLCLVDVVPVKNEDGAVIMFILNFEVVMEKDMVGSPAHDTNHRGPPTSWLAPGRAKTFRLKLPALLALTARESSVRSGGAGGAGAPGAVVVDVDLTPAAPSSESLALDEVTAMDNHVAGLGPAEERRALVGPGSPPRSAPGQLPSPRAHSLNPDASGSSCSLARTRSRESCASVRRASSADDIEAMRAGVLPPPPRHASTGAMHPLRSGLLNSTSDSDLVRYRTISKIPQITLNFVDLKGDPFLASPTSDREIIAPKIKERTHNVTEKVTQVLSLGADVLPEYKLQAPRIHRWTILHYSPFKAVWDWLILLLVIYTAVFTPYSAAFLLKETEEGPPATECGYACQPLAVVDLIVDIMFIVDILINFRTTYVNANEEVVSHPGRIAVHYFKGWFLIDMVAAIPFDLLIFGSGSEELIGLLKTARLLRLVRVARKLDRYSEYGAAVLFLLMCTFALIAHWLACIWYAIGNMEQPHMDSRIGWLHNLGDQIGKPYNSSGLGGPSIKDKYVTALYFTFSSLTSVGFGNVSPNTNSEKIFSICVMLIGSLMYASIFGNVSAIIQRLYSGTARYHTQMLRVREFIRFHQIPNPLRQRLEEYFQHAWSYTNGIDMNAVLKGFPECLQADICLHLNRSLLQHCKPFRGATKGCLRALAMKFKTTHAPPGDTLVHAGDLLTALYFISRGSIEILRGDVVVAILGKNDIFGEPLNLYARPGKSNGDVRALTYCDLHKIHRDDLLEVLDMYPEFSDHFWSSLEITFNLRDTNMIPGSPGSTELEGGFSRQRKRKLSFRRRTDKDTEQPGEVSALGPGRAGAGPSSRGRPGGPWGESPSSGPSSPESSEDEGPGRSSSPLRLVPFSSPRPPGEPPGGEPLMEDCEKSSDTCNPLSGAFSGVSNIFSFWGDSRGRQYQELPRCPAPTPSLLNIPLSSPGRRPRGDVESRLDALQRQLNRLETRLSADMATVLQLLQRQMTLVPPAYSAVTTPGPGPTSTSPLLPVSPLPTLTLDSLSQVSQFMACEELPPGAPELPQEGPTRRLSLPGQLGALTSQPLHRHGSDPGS

Row | Compound | hERG current change (%, negative = inhibition) at 1uM [%]
1 | Cc1cc(/C=C(\C#N)c2nnc(N3CCOCC3)n2-c2ccccc2)c(C)n1-c1ccccc1 | 9.2
2 | COCCNC(=O)CSc1nc2cc(OC)c(OC)cc2c(=O)n1CCc1ccc(S(N)(=O)=O)cc1 | 13.8
3 | O=c1c2cnn(-c3ccccc3Cl)c2ncn1Cc1cccnc1 | 11.9
4 | O=C(c1cccnc1)N1CCN(S(=O)(=O)c2cccc(Cl)c2)CC1 | 10.8
5 | CCn1cc(C(=O)O)c(=O)c2cc(Br)ccc21 | -0.38
6 | CC(C)NC(=O)CSc1nnc(C2CC2)n1-c1ccccc1 | 11
7 | O=c1c([N+](=O)[O-])c(N2CCOCC2)c2ccccc2n1Cc1ccccc1 | 13.3
8 | COc1ccc(CCNC(=O)CSc2cccc3cccnc23)cc1OC | -2.88
9 | CC(=O)Oc1ccc2nc(-c3ccco3)oc(=O)c2c1 | 0.312
10 | CN(C)CCn1c(=N)n(CC(O)c2ccc(Cl)c(Cl)c2)c2ccccc21.Cl (stereo not shown) | -41.3
11 | Cc1cc(C)c2nc(SCC(=O)N3CC(=O)Nc4ccccc43)c(C#N)cc2c1 | 23.5
12 | CN(C)CCCNC(=O)c1ccc(=O)[nH]n1 | 12.2
13 | O=C(NCc1ccc(F)cc1)c1cnc2n(c1=O)CCS2 | -0.209
14 | Cc1cc(NC(=O)CCC(=O)N(Cc2ccco2)C2(C(=O)NC3CCCC3)CCCCC2C)no1 (stereo not shown) | 10.2
15 | O=C1c2cccc3cccc(c23)C(=O)N1CCN1CCN(C(=S)Nc2ccc(Cl)cc2)CC1 | 20.8
16 | Cc1cc(NS(=O)(=O)c2ccc(NC(=O)CSc3nnc(-c4ccco4)n3C)cc2)nc(C)n1 | 13.2
17 | C/C(CC(=O)NCc1ccco1)=N\NC(=O)c1ccc(Cl)cc1Cl | 15.2
18 | COc1cccc(CN(C(=O)c2cc3ccccc3oc2=O)C2CCS(=O)(=O)C2)c1 (stereo not shown) | 17.8
19 | C=CCNc1oc(/C=C/c2ccccc2)nc1C#N | -1.24
20 | CC(C)(C)NC(=O)NC(=O)CSc1ccc(S(=O)(=O)N2CCCCC2)cn1 | 8.1
21 | O=C(O)Cn1c(=O)c2c3c(sc2n(Cc2ccccc2)c1=O)CCCC3 | 13.9
22 | N#C/C(=C1/CCCCCN1)c1nc2ccccc2[nH]1 | 8.18

Row | Compound | hERG current change (%, negative = inhibition) at 1uM [%]
23 | CCOC(=O)/C(=N\Nc1ccccc1)S(=O)(=O)c1ccccc1 | -2.31
24 | Cc1cc(NC(=O)c2ccc3c(c2)OCCO3)ccc1NC(=O)c1ccco1 | 12.2
25 | COC(=O)CSc1nnc(C)c(=O)[nH]1 | 2.75
26 | c1ccc(C2Nc3cccc4cccc(c34)N2)cc1 | 14.3
27 | COc1ccc(C(=O)N/N=C(\c2ccccc2)c2ccccn2)cc1 | 7.39
28 | COc1cc(/C=N/NC(=O)[C@H](Cc2c[nH]c3ccccc23)NC(=O)OCC(C)C)cc([N+](=O)[O-])c1O | 14
29 | CCCCCCC(=O)N(O)C1CC(=O)N(c2ccccc2)C1=O (stereo not shown) | 25.2
30 | COc1ccc(-c2n[nH]c(C)c2-c2ccc(OC)c(OC)c2)c(O)c1 | -4.84
31 | Cc1ccc(-n2nc(C)c3c(C)c(CCC(=O)NCC4CCCO4)c(=O)n(C)c32)cc1 (stereo not shown) | 11.4
32 | CCOc1ccc(C(=O)Nc2ccc(N3CCN(C)CC3)cc2)cc1 | -13.2
33 | Br.CC(=O)NNc1nc(-c2ccccc2)cs1 | 15.6
34 | CC(C)(C)c1ccc(C(=O)NCCNC(=O)c2ccco2)cc1 | 12.2
35 | Oc1cccc(/C=N/N=C/c2cccc(O)c2O)c1O | 7.33
36 | COc1ccccc1C(c1nnnn1CCc1ccccc1)N1CCN(c2ccccc2)CC1 (stereo not shown) | 7.04
37 | Cc1ccc(N2C(=O)NC(=O)/C(=C/c3ccc(OC(=O)c4cccs4)cc3)C2=O)cc1 | 3.68
38 | C/C(CC(=O)Nc1cccc(Cl)c1C)=N\NC(=O)Cc1csc(N)n1 | 1.6
39 | COc1ccc(/C(C)=N/Nc2ccc(C(=O)O)cc2)c(OC)c1.O=S(=O)(O)O | 5.22
40 | COCCN(C(=O)CC1CCCCC1)c1c(N)n(CC(C)C)c(=O)[nH]c1=O | 14.2
41 | O=c1c2ccccc2cnn1Cc1n[nH]c(=S)n1-c1ccc(Cl)cc1Cl | 5.76
42 | Cc1nc(-c2cccc(S(=O)(=O)N3CC(C)CC(C)C3)c2)cs1 (stereo not shown) | 14.7
43 | COc1ccc(C(=O)Nc2ccc(C(=O)NCC3CCCO3)cc2)c(OC)c1OC (stereo not shown) | 15.2
44 | COC(=O)Nc1nnc(-c2ccccc2OC)s1 | 7.37

Row | Compound | hERG current change (%, negative = inhibition) at 1uM [%]
45 | N=c1n(CC(=O)c2ccc(Br)cc2)c2ccccc2n1Cc1ccccc1.[Br-] | 14.3
46 | O=C(COc1ccc(F)cc1)Nc1nc2c(s1)CCCC2 | 16.7
47 | CSc1sc(C(=O)NN)c2c1C1(CCC2)SCCS1 | 9.09
48 | C[C@@H]1C=C(C(=O)N2CCN(C)CC2)O[C@H](OCc2ccc(CO)cc2)C1 | 18.7
49 | O=C(C(=O)N1CCCc2ccccc21)c1cn(CC(=O)N2CCOCC2)c2ccccc12 | 5.18
50 | Cc1ccc(C(=O)NCC(C)(C)N2CCOCC2)s1 | 4.53
51 | CN(C)/C=C1\Cc2ccccc2C1=O | 10.6
52 | O=C(NCc1ccco1)C(c1ccccc1)N(Cc1cccnc1)C(=O)Cn1nnc2ccccc21 (stereo not shown) | 1.5
53 | Cc1ccc(S(=O)(=O)Nc2ccccc2C(=O)OC(C)C(=O)Nc2ccc3ccccc3c2)cc1[N+](=O)[O-] (stereo not shown) | 8.2
54 | CCNc1c([N+](=O)[O-])ncn1C | -3.35
55 | Cc1ccsc1/C=N/N1CCN(c2ccccc2)CC1 | -2.26
56 | COC(=O)c1ccncc1C(=O)Nc1ccc(Oc2ncc(C(F)(F)F)cc2Cl)cc1 | 9.32
57 | C=CCn1c(=O)c(C(=O)Nc2cccnc2)c(O)c2ccccc21 | -6.89
58 | CCc1ccc(OCC2NCCc3cc(OC)c(OC)cc32)cc1 (stereo not shown) | 5.28
59 | O=C(O)c1ccc(NC(=O)C(c2ccccc2)c2ccccc2)cc1 | 15.6
60 | C=CCn1cc(C(=O)NCCOC)c(=O)c2cc(S(=O)(=O)N3CCCCCC3)ccc21 | -9.03
61 | O=C(CSCCN1C(=O)c2ccccc2C1=O)Nc1ccc2ccccc2c1 | 6.12
62 | CCCCC(=O)Nc1ccccc1N1CCN(c2ccccc2)CC1 | 13.7
63 | O=C(Nc1ccc2c(c1)C(=O)OC2)c1ccc(Cl)cc1 | 15.4
64 | Cc1ccccc1C1CCCN(Cc2nc(CC3CC3)no2)C1 (stereo not shown) | 6.51
65 | COC(=O)c1ccc(NS(=O)(=O)c2ccc(-c3cc(C)no3)s2)cc1 | 9.22
66 | Cc1cccc(OCC(=O)N(Cc2ccco2)C2CCS(=O)(=O)C2)c1C (stereo not shown) | -5.31

Row | Compound | hERG current change (%, negative = inhibition) at 1uM [%]
67 | Cc1ccccc1OC(C)C(=O)Nc1cccnc1 (stereo not shown) | 17.1
68 | Cc1ccc(CNC(=O)CNS(=O)(=O)c2ccc(Br)s2)cc1 | 6.27
69 | CN(CCc1ccccn1)C(=S)Nc1ccc(Cl)cc1Cl | -4.04
70 | Cc1cccc(NC(=O)CSc2nc3c([nH]c4ccccc43)c(=O)n2C)c1 | 14.3
71 | O=C1NC(=O)C(c2ccc(Cl)cc2)N1 (stereo not shown) | 8.62
72 | COc1ccc(-c2nnc3n2N=C(C)CS3)cc1OC | 7.9
73 | Cc1nc(SCC(=O)Nc2cccc(C(=O)O)c2)n[nH]1 | 16.2
74 | CCOc1nc2cnccc2n(CC(=O)Nc2ccccc2C(=O)OC)c1=O | 1.57
75 | COc1ccc(-n2nc(C(=O)NCC(=O)N3CCN(c4ccccc4OC)CC3)c3ccccc3c2=O)cc1OC | -0.135
76 | Cc1nn(CCc2n[nH]c(=S)n2-c2ccc(F)c(Cl)c2)c(C)c1[N+](=O)[O-] | 14.9
77 | COc1ccc(NC(=O)c2noc3c2CCC3)cc1 | 0.883
78 | CC(C)(C)NC(=S)N1CCn2cccc2C1c1cccnc1 (stereo not shown) | 3.72
79 | CCNC(=O)CC1C(=O)N(c2ccc(F)cc2)C(=O)N1Cc1cccs1 (stereo not shown) | -0.659
80 | CCOc1ccccc1CNS(=O)(=O)c1ccc2[nH]c(=O)sc2c1 | 3.85
81 | O=C(Nc1ccc(NC(=O)c2ccco2)cc1)c1cnccn1 | 19.8
82 | Cc1c(C)c2cc(Cl)c(OC(C)C(=O)NCCN3CCOCC3)cc2oc1=O (stereo not shown) | 9.8
83 | CN(CC(=O)OCC(=O)c1c(N)n(C)c(=O)n(C)c1=O)S(=O)(=O)c1ccc(Cl)cc1 | -22.2
84 | CCCCCc1nc2c(C#N)c(-c3ccc(Cl)cc3)ccn2n1 | 11.3
85 | O=C(CC(Cc1ccccc1)c1ccco1)NC1CCCCC1 (stereo not shown) | 15
86 | O=C(Cn1[nH]c(=O)c2ccccc2c1=O)Nc1cccc(S(=O)(=O)N2CCCCCC2)c1 | 2.17
87 | C/C(=N\NC(=O)c1ccc(N(C)C)cc1)c1cccnc1 | 1.57
88 | O=C(CN1CCCCC1)N=Nc1c(O)[nH]c2ccccc12 | 8.41
